Measured values from the supplement of paper PMC7826260.
This is one part of the list. The data describe in vitro nicking of single-stranded DNA by Rep domains (3 µM enzyme, 1 h, 37 °C); shown is the middle of each 90-letter strand. Uncut reads are compared with the no-enzyme pool on a log2 scale; more negative means more cut, near 0 not cut, and no call is made. Because reads are shares of a total, they shift together; where an enzyme cuts many sequences, the uncut ones exceed 0.

These sequences were tested on T1, Rep nickase domain of tomato golden mosaic virus (assay: uncleaved DNA left, log2 of reads against the no-enzyme library (log2 ratio); higher = less cleavage (more negative = more Rep cleavage of the k-mer); sequences stand for … in CTCGTCCG…ACCGGAGA).
T1 sequence (protein, residues 1-124, tag omitted): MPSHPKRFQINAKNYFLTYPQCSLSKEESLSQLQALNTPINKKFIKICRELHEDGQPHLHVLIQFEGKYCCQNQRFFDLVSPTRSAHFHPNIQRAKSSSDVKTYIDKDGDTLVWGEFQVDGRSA
Protocol: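 A pool of 90-nt single-stranded DNAs with seven random bases just before the constant AC of the nick site (name = the seven bases) was cut by 3 µM recombinant His6-SUMO-tagged Rep nickase domain (300 nM DNA, 50 mM HEPES pH 8.0, 50 mM NaCl, 1 mM MnCl2, 1 h, 37 °C, three replicates). Uncut DNA was amplified and sequenced.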

Sequence	uncleaved DNA left (log2)
GGAAAAG	0.116
GCATGCT	-0.15
TAATCAT	-3.93
ACCGCAA	-0.000746
TTATAAG	0.0581
GGGATCC	0.0512
ACGCAAA	0.00546
TCATGTT	-2.48
CTCCCTT	-0.172
CCCTAAT	-0.195
GTGAAAA	0.106
GAGAATT	-0.0262
GCGCGTG	0.208
CGCCATT	-0.0977
AACACAA	-0.11
TGAGGAG	0.149
TAGCCCT	-0.092
TGTGAGA	0.179
AAGGTTA	0.0375
TATATTC	-0.0861

Sequence	uncleaved DNA left (log2)
TACTAAG	0.0975
TCATCCA	-0.0114
TTCGTGT	-0.0701
CTAGGTT	0.0307
TGGGATA	0.000134
CGGCCGA	0.0363
ACTCACT	0.0586
GTTTTTA	0.253
TACGGCG	-0.0142
CTACCAG	-0.142
TACCTTT	-0.284
GGAAAGT	0.0708
TTAACAA	0.074
GGGGATA	0.038
AGAAGAG	0.0794
CCAGCCA	0.123
AGTGTGC	0.051
CGAGATT	-0.0389
CTCGACG	0.0422
ATGCGGA	-0.0172
